Experimental data reported in patent publication US9714221B1 (priority 2016, dated 2017).

test system: MCF7 cells (breast tumor cells) WT; test: cells; details: Homo sapiens, read-out: proliferation MCF7 (WT) IC50 (nM)

Structure (SMILES) | IC50
CCOc1ccc(C2=C(c3ccc(O[C@H]4CCN(CCCF)C4)cc3)c3ccc(O)cc3CCC2)c(Cl)c1 [Example 43, 6-(2-chloro-4-ethoxy-phenyl)-5-[4-[(3S)-1-(3-fluoropropyl)pyrrolidin-3-yl]oxyphenyl]-8,9-dihydro-7H-benzo[7]annulen-2-ol] | 0.4 nM
Oc1ccc2c(c1)CCCC(c1ccc3[nH]ncc3c1)=C2c1ccc(O[C@H]2CCN(CCCF)C2)cc1 [Example 215, 5-[4-[(3S)-1-(3-fluoropropyl)pyrrolidin-3-yl]oxyphenyl]-6-(1H-indazol-5-yl)-8,9-dihydro-7H-benzo[7]annulen-2-ol] | 1 nM
COc1cc(C2=C(c3ccc(O[C@H]4CCN(CCCF)C4)cc3)c3ccc(O)cc3CCC2)ccc1F [Example 50, 6-(4-fluoro-3-methoxy-phenyl)-5-[4-[(3S)-1-(3-fluoropropyl)pyrrolidin-3-yl]oxyphenyl]-8,9-dihydro-7H-benzo[7]annulen-2-ol] | 0.2 nM
Oc1ccc2c(c1)CCCC(c1ccc3nsnc3c1)=C2c1ccc(O[C@H]2CCN(CCCF)C2)cc1 [Example 194, 6-(2,1,3-benzothiadiazol-5-yl)-5-[4-[(3S)-1-(3-fluoropropyl)pyrrolidin-3-yl]oxyphenyl]-8,9-dihydro-7H-benzo[7]annulen-2-ol] | 0.3 nM
Cc1ccc(C2=C(c3ccc(O[C@H]4CCN(CCCF)C4)cc3)c3ccc(O)cc3CCC2)cc1Cl [Example 37, 6-(3-chloro-4-methyl-phenyl)-5-[4-[(3S)-1-(3-fluoropropyl)pyrrolidin-3-yl]oxyphenyl]-8,9-dihydro-7H-benzo[7]annulen-2-ol] | 0.5 nM
COc1cc(F)c(C2=C(c3ccc(O[C@H]4CCN(CCCF)C4)cc3)c3ccc(O)cc3CCC2)cc1F [Example 88, 6-(2,5-difluoro-4-methoxy-phenyl)-5-[4-[(3S)-1-(3-fluoropropyl)pyrrolidin-3-yl]oxyphenyl]-8,9-dihydro-7H-benzo[7]annulen-2-ol] | 0.2 nM
Oc1ccc(C2=C(c3ccc(O[C@H]4CCN(CCCF)C4)cc3)c3cc(O)ccc3CCC2)cc1 [Example 1, 5-[4-[(3S)-1-(3-fluoropropyl)pyrrolidin-3-yl]oxyphenyl]-6-(4-hydroxyphenyl)-8,9-dihydro-7H-benzo[7]annulen-3-ol] | 0.6 nM
CN1CCOc2cc(C3=C(c4ccc(O[C@H]5CCN(CCCF)C5)cc4)c4ccc(O)cc4CCC3)ccc21 [Example 133, 5-[4-[(3S)-1-(3-fluoropropyl)pyrrolidin-3-yl]oxyphenyl]-6-(4-methyl-2,3-dihydro-1,4-benzoxazin-7-yl)-8,9-dihydro-7H-benzo[7]annulen-2-ol] | 1 nM
Oc1ccc2c(c1F)CCCC(c1ccc(C(F)(F)F)cc1)=C2c1ccc(O[C@H]2CCN(CCCF)C2)cc1 [Example 124, 1-fluoro-5-[4-[(3S)-1-(3-fluoropropyl)pyrrolidin-3-yl]oxyphenyl]-6-[4-(trifluoromethyl)phenyl]-8,9-dihydro-7H-benzo[7]annulen-2-ol] | 0.3 nM
Oc1ccc2c(c1)CCCC(c1ccc3cc[nH]c3c1)=C2c1ccc(O[C@H]2CCN(CCCF)C2)cc1 [Example 19, 5-[4-[(3S)-1-(3-fluoropropyl)pyrrolidin-3-yl]oxyphenyl]-6-(1H-indol-6-yl)-8,9-dihydro-7H-benzo[7]annulen-2-ol] | 5 nM
Oc1ccc2c(c1)CCCC(c1ccc(O)nc1F)=C2c1ccc(O[C@H]2CCN(CCCF)C2)cc1 [Example 171, 6-fluoro-5-[5-[4-[(3S)-1-(3-fluoropropyl)pyrrolidin-3-yl]oxyphenyl]-2-hydroxy-8,9-dihydro-7H-benzo[7]annulen-6-yl]pyridin-2-ol] | 0.9 nM
Cn1cnc2cc(C3=C(c4ccc(O[C@H]5CCN(CCCF)C5)cc4)c4ccc(O)cc4CCC3)ccc21 [Example 187, 5-[4-[(3S)-1-(3-fluoropropyl)pyrrolidin-3-yl]oxyphenyl]-6-(1-methylbenzimidazol-5-yl)-8,9-dihydro-7H-benzo[7]annulen-2-ol] | 19 nM
CCOc1c(F)cc(C2=C(c3ccc(O[C@H]4CCN(CCCF)C4)cc3)c3ccc(O)cc3CCC2)cc1Cl [Example 140, 6-(3-chloro-4-ethoxy-5-fluoro-phenyl)-5-[4-[(3S)-1-(3-fluoropropyl)pyrrolidin-3-yl]oxyphenyl]-8,9-dihydro-7H-benzo[7]annulen-2-ol] | 1 nM
COc1ccc(C2=C(c3ccc(O[C@H]4CCN(CCCF)C4)cc3)c3ccc(O)cc3CCC2)c(C#N)c1 [Example 59, 2-[5-[4-[(3S)-1-(3-fluoropropyl)pyrrolidin-3-yl]oxyphenyl]-2-hydroxy-8,9-dihydro-7H-benzo[7]annulen-6-yl]-5-methoxy-benzonitrile] | 0.1 nM
CCOc1ccc(C2=C(c3ccc(O[C@H]4CCN(CCCF)C4)cc3)c3ccc(O)cc3CCC2)c(F)c1F [Example 52, 6-(4-ethoxy-2,3-difluoro-phenyl)-5-[4-[(3S)-1-(3-fluoropropyl)pyrrolidin-3-yl]oxyphenyl]-8,9-dihydro-7H-benzo[7]annulen-2-ol] | 0.3 nM
Oc1ccc2c(c1)CCCC(c1cncc(Cl)c1)=C2c1ccc(O[C@H]2CCN(CCCF)C2)cc1 [Example 86, 6-(5-chloro-3-pyridyl)-5-[4-[(3S)-1-(3-fluoropropyl)pyrrolidin-3-yl]oxyphenyl]-8,9-dihydro-7H-benzo[7]annulen-2-ol] | 0.4 nM
Oc1ccc2c(c1)CCCC(c1ccc3occc3c1)=C2c1ccc(O[C@H]2CCN(CCCF)C2)cc1 [Example 28, 6-(benzofuran-5-yl)-5-[4-[(3S)-1-(3-fluoropropyl)pyrrolidin-3-yl]oxyphenyl]-8,9-dihydro-7H-benzo[7]annulen-2-ol] | 0.2 nM
Oc1ccc2c(c1)CCCC(c1ccc3c(c1)CCCN3)=C2c1ccc(O[C@H]2CCN(CCCF)C2)cc1 [Example 73, 5-[4-[(3S)-1-(3-fluoropropyl)pyrrolidin-3-yl]oxyphenyl]-6-(1,2,3,4-tetrahydroquinolin-6-yl)-8,9-dihydro-7H-benzo[7]annulen-2-ol] | 0.9 nM
COc1ncc(C2=C(c3ccc(O[C@H]4CCN(CCCF)C4)cc3)c3ccc(O)cc3CCC2)cc1C [Example 101, 5-[4-[(3S)-1-(3-fluoropropyl)pyrrolidin-3-yl]oxyphenyl]-6-(6-methoxy-5-methyl-3-pyridyl)-8,9-dihydro-7H-benzo[7]annulen-2-ol] | 0.8 nM
COc1ncc(C2=C(c3ccc(O[C@H]4CCN(CCCF)C4)cc3)c3ccc(O)cc3CCC2)cc1Cl [Example 99, 6-(5-chloro-6-methoxy-3-pyridyl)-5-[4-[(3S)-1-(3-fluoropropyl)pyrrolidin-3-yl]oxyphenyl]-8,9-dihydro-7H-benzo[7]annulen-2-ol] | 0.4 nM
O=C(O)c1ccc2c(c1)CCCC(c1ccc(SC(F)(F)F)cc1)=C2c1ccc(O[C@H]2CCN(CCCF)C2)cc1 [Example 177, 5-[4-[(3S)-1-(3-fluoropropyl)pyrrolidin-3-yl]oxyphenyl]-6-[4-(trifluoromethylsulfanyl)phenyl]-8,9-dihydro-7H-benzo[7]annulene-2-carboxylic acid] | 11 nM
Oc1ccc2c(c1)CCCC(c1cnc3[nH]ccc3c1)=C2c1ccc(O[C@H]2CCN(CCCF)C2)cc1 [Example 22, 5-[4-[(3S)-1-(3-fluoropropyl)pyrrolidin-3-yl]oxyphenyl]-6-(1H-pyrrolo[2,3-b]pyridin-5-yl)-8,9-dihydro-7H-benzo[7]annulen-2-ol] | 6 nM
